# Measured values published in PubChem BioAssay AID504832 (National Center for Advancing Translational Sciences (NCATS), 2011).
# About 18,000 (5.8%) of roughly 310,000 compounds were called active. The inconclusive results got no clear call from the source; some entries with a clear call stand among them for comparison. Calls come from the whole dose curve; as a rule, active = well fitted inhibition curve with a large enough effect; inconclusive = small, poorly fitted or top-dose-only effect, or another doubt; inactive = no such curve, though single readings can be large or run the other way. No potency is given beside an inconclusive call; the fits are too rough.
# Experiment: Primary qHTS for delayed death inhibitors of the malarial parasite plastid, 48 hour incubation
# Conditions: P. falciparum luciferase growth in erythrocytes; series mostly up to 28.7 µM; activity change, negative = inhibition: at the top concentration
# Outline: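 Erythrocytes infected with P. falciparum carrying an integrated firefly luciferase reporter (2% hematocrit, 0.1% parasitemia final) were exposed to compounds in RPMI 1640 with 0.5% Albumax at 37 C, 5% CO2. Growth inhibition was scored as reduced luminescence.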
# % is set by controls: 0 for no effect and ±100 for the full control effect; potency is the fitted concentration of half-maximal effect; tags give direction and shape of the fitted curve.
SMILES,Potency,"activity change, negative = inhibition"
COc1c2c(cc3c1C(CC(O)Cc1ccccc1)N(C)CC3)OCO2 (stereo not given),"inconclusive [inhibitor, single point]",–
COc1ccc(C2Nc3ccccc3C(=O)N2Cc2ccco2)cc1COc1ccc(NC(C)=O)cc1 (stereo not given),"inconclusive [inhibitor, partial curve]",–
Cn1cccc1/C=N/N1CCN(c2ccccn2)CC1,–,inactive: 45%
COc1ccc(C(C)=O)cc1COC(=O)c1c(C)nn(-c2ccccc2)c1C,"inconclusive [inhibitor, partial curve]",–
COc1ccc(-c2cc(C3CCN(c4cc(Cl)nc(N)n4)CC3)[nH]n2)cc1,"inconclusive [inhibitor, partial curve, poor fit]",–
O=C(c1ccco1)c1coc2c1cc(O)c1ccccc12,"inconclusive [inhibitor, single point]",–
Cc1cnc(NC(=O)CSc2ncc(-c3ccccc3)n2Cc2ccco2)s1,"inconclusive [inhibitor, single point]",–
O=c1cc(CN2CCN(C/C=C/c3ccccc3)CC2)c2cc(O)c(-c3ccccc3)cc2o1,active: 0.928 µM,–
Cn1c(O)c(/C=N/NC(=O)c2cc3ccccc3cc2O)c2ccccc21,"inconclusive [inhibitor, single point]",–
COc1ccc(/C=N/NC(=O)c2ccc(NS(=O)(=O)c3cccs3)cc2)cc1,–,inactive: 12.2%
CCc1ccc(-c2nc(CS(=O)CC(=O)NCc3ccco3)c(C)o2)cc1 (stereo not given),–,inactive: 9.58%
O=C(CCSc1ccccc1)N1CCN(c2ccccc2F)CC1,–,inactive: 157%
Cc1cc(C)c2oc(-c3ccc(C)c(NC(=S)NC(=O)/C=C/c4ccco4)c3)nc2c1,"inconclusive [inhibitor, single point]",–
COc1ccc(C(CNC(=O)CNC(=O)c2ccccc2Cl)N2CCCC2)cc1 (stereo not given),"inconclusive [inhibitor, single point]",–
COc1ccc(C(=O)CCc2ccccc2O)c(OC)c1,–,inactive: 117%
CCOC(=O)C1=C(SCC)c2cc3c(n2C1=O)CCCC3,"inconclusive [inhibitor, single point]",–
CCCCN(C)C(=O)CSc1nc(NCc2ccc(OC)cc2)c2ccccc2n1,active: 10.4 µM,–
COc1ccc([C@H]2C=C3CN(C(=O)OC(C)(C)C)S(=O)(=O)[C@H]3C[C@H]2OC(=O)c2ccc(C(F)(F)F)cc2)cc1,"inconclusive [inhibitor, partial curve]",–
COc1ccccc1CCNC(=O)C(=O)NCC1OCCN1S(=O)(=O)c1ccc(OC)c(OC)c1 (stereo not given),"inconclusive [inhibitor, single point]",–
CC(O)(CS(=O)(=O)Cc1ccccc1)C(=O)Nc1ccc(C(F)(F)F)cc1 (stereo not given),"inconclusive [inhibitor, single point]",–
Cc1cccc(C)c1NC(=O)CCCSc1nnc(-c2ccc(Cl)cc2)n1-c1ccccc1,–,inactive: -3.83%
CCN(CC)CCNC(=O)c1cc2c(-c3cccc(OC)c3)nn(C)c2s1,active: 1.47 µM,–
CC(C)(C)OC(=O)N1CCC[C@H]1C(=O)Nc1ccc(Br)cc1,"inconclusive [inhibitor, partial curve, poor fit]",–
O=C(C1=NNCC1c1ccccc1)C1OC1c1ccccc1 (stereo not given),"inconclusive [inhibitor, single point]",–

SMILES,Potency,"activity change, negative = inhibition"
O=C(NCc1ccco1)C(c1ccccc1)N(C(=O)Cc1cccs1)c1ccccc1 (stereo not given),"inconclusive [inhibitor, single point]",–
CC1CCCCN1C(=O)NC1CC(=O)N(c2ccc3c(c2)OCCO3)C1 (stereo not given),"inconclusive [inhibitor, single point]",–
CCCCCNC(=O)Cc1cc(=O)[nH]c(=O)[nH]1,–,inactive: 4%
CCc1cc2c(=O)n(-c3ccc(Br)cc3)cnc2s1,–,inactive: 143%
O=C1CSC(c2ccccc2)N1c1ccc([N+](=O)[O-])cc1 (stereo not given),"inconclusive [inhibitor, partial curve, poor fit]",–
O=c1cc(-c2ccccc2)nc(N2CCN(Cc3ccccc3)CC2)[nH]1,"inconclusive [inhibitor, partial curve]",–
Cc1ccccc1/C=C/C12NC(=O)CN1c1ccccc1C2(C)C (stereo not given),"inconclusive [inhibitor, single point]",–
CCN(CCO)CCCC(C)Nc1ccnc2cc(Cl)ccc12 (stereo not given),active: 0.151 µM,–
Cc1cccc(-c2nc(CSCC(=O)NCCCN3CCOCC3)c(C)o2)c1,"inconclusive [inhibitor, single point]",–
CCOc1cc(C(=O)Nc2ccc(C)cc2O)ccc1OCC(=O)N1CCOCC1,"inconclusive [inhibitor, single point]",–
CCCCNC(=S)N/N=C/c1cc(C)ccc1C,"inconclusive [inhibitor, single point]",–
COc1ccc(-n2nc(C(=O)NCC(=O)NC3CCCC(C)C3C)c3ccccc3c2=O)c(OC)c1 (stereo not given),"inconclusive [inhibitor, single point]",–
CC(C)OC(=O)C1C(=O)CC(C)(O)C(C(=O)OC(C)C)C1c1cccc([N+](=O)[O-])c1 (stereo not given),"inconclusive [inhibitor, single point]",–
CC(C)(C)c1ccc(NC(=O)NCc2ccco2)cc1,"inconclusive [inhibitor, partial curve]",–
O=c1c2sccc2nc(SCc2cc(=O)n3cc(Br)ccc3n2)n1Cc1ccccn1,–,inactive: 174%
O=C(Nc1cc(C(F)(F)F)ccc1N1CCOCC1)C1Cc2ccccc2CN1C(=O)c1ccco1 (stereo not given),"inconclusive [inhibitor, single point]",–
O=C(N/N=C/c1nn(-c2ccccc2)cc1-c1ccc(Cl)cc1)c1ccncc1,active: 2.08 µM,–
COc1cc(NS(=O)(=O)c2ccc(Br)cc2)c(OC)cc1NC(=O)c1ccco1,"inconclusive [inhibitor, single point]",–
Cc1nc(-c2ccccc2)nc(Cl)c1Cl,"inconclusive [inhibitor, single point]",–
CCC(CC)c1nnc(NC(=O)CCc2ccccc2)s1,–,inactive: 23%
Cc1nc(Nc2ncc(C(=O)Nc3c(C)cccc3Cl)s2)cc(N2CCN(CCO)CC2)n1,active: 9.53 µM,–
COc1ccc(-c2sc3ccc(N4CCOCC4)cc3c2C#CC(C)(C)O)cc1,"inconclusive [inhibitor, single point]",–
CCOc1cc(NC(=S)NCC2CCCO2)c(OCC)cc1NC(=O)c1cccc(C)c1 (stereo not given),"inconclusive [inhibitor, partial curve, poor fit]",–
CCCOc1ccc(C(=O)NNC(=S)NC(=O)c2cc(-c3ccccc3)nc3ccccc23)cc1,–,inactive: 5.02%

SMILES,Potency,"activity change, negative = inhibition"
CCCNC(=O)c1ccc2c(=O)c(O)c(-c3ccsc3)[nH]c2c1,"inconclusive [inhibitor, single point]",–
O=C(N/C(=C/c1cccs1)C(=O)N1CCOCC1)c1cccs1,–,inactive: -1.6%
Cc1nc2c(sc3nc4c(cc32)COC(C)(C)C4)c(=O)o1,"inconclusive [inhibitor, partial curve]",–
O=[N+]([O-])c1cc(-c2ccc(/C=N\n3cnnc3)o2)cc([N+](=O)[O-])c1,active: 7.38 µM,–
CCN(CC(=O)Nc1ccc(C)c(S(=O)(=O)N2CCOCC2)c1)Cc1ccccc1,active: 11.7 µM,–
O=C(CCc1ccccc1)Nc1cccnc1,–,inactive: -2.4% [at 0.00184 µM]
CCCCCCN=C(C)C1=C(O)C(C(=O)OC)C(C)(C)CC1=O (stereo not given),"inconclusive [inhibitor, single point]",–
O=C1NC(c2ccc(F)cc2)Oc2ccccc21 (stereo not given),–,inactive: 0%
O=C(CSc1ccc(-c2ccccc2)nn1)N1CCOCC1,–,inactive: 29.5%
COc1ccccc1N(CC(=O)NC1CCCC1)S(=O)(=O)c1ccc(C)cc1,"inconclusive [inhibitor, partial curve, poor fit]",–
COc1cc(C(=O)Nc2cc(C(F)(F)F)ccc2-n2cncn2)cc(OC)c1OC,"inconclusive [inhibitor, single point]",–
CCc1ccc(-c2nc(CN3CCC(C(=O)NCCN(CC)c4ccccc4)CC3)c(C)o2)cc1,"inconclusive [inhibitor, full curve, poor fit]",–
O=C(N[C@@H](Cc1ccc(O)cc1)C(=O)O)c1ccc(C(F)(F)F)cc1,–,inactive: 39.8%
CCOc1ccc(NC(=O)C2CCCN(S(=O)(=O)c3ccc4c(c3)CCCN4C(C)=O)C2)cc1 (stereo not given),active: 11.7 µM,–
CC(=O)c1sc2nc(-c3ccc(C)cc3)c3c(c2c1N)CCCC3,"inconclusive [inhibitor, single point]",–
COc1ccc(-c2onc(C)c2-c2ccc(C(=O)OC(C)C)o2)c(O)c1,active: 1.31 µM,–
Cc1cccnc1NC(=O)CCn1c(=O)oc2ccccc21,–,inactive: 22.8%
COC(=O)C(c1ccccc1)N(Cc1cccc(CN(C(C(=O)OC)c2ccccc2)S(C)(=O)=O)c1)S(C)(=O)=O (stereo not given),active: 8.28 µM,–
CC(=O)Nc1ccc(/C(C)=N/Nc2nc(Nc3cccc4ccccc34)nc(N3CCOCC3)n2)cc1,active: 13.1 µM,–
Oc1ccccc1-c1nc(NCC2CCCO2)c2ccccc2n1 (stereo not given),"inconclusive [inhibitor, single point]",–
O=C(NCCc1ccc(Cl)cc1)C12CC3CC(CC(O)(C3)C1)C2,–,inactive: 19.7%
CN(C(=O)c1ccc(NC(=O)Cc2ccc(NC(=O)C3CCCN(C(=O)C4CCC4)C3)cc2)cc1)C1CC1 (stereo not given),"inconclusive [inhibitor, partial curve]",–
